# From the supplement of paper PMC4466236
# Whole data set: some 33,000 sequences, median “E-score (dimensionless, -0.5 to 0.5)” near -0.058, cut for the highest 2% near 0.35. The list shows a part of the results.
# Tested on: MvaT
# Assay: PBM 8-mer E-score (mean of HK and ME arrays) (E-score (dimensionless, -0.5 to 0.5)); higher = stronger relative binding preference; most listed sequences are background and not binding sites
# Method in brief: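 Reported values are rank-based E-scores, taken as the mean of two universal arrays and parsed with a custom script. Each 8-mer score falls between -0.5 and 0.5. The arrays, ME and HK, were double-stranded 60-mers with a constant 25-mer primer region and a variable 35-mer region covering all 8-mers. They were probed, by an earlier protocol, with full-length P. aeruginosa MvaT carrying an N-terminal glutathione S-transferase fusion.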
row,Sequence,PBM 8-mer E-score
1,TCATACCA,0.0385
2,ACAGGATA,0.111
3,TCTCCGAA,-0.0929
4,AACATACC,0.0787
5,AGATTGAA,0.0952
6,CCCGCCCG,-0.121
7,ACCTCCCC,-0.224
8,ATACCTCC,-0.172
9,ACGCTCCA,-0.196
10,GCGGTAAA,0.0188
11,ACCAAGCC,-0.256
12,AGTTGTGG,0.136
13,AAGGCTAC,-0.197
14,ACGTGTGG,-0.0151
15,CTCGGCAC,-0.162
16,CGTTCTGC,-0.0587
17,GGGCAAAC,-0.00413
18,TAGCCGGA,-0.218
19,CCCAGAAA,-0.116
20,GAAGAGTA,-0.00757
21,AACGACAG,-0.0946
22,GACGCCAA,-0.138
23,CCAAGCTA,-0.0982
24,AAATAGAG,0.171
25,CGGGAACA,-0.197

row,Sequence,PBM 8-mer E-score
1,TCTTGGCA,-0.0864
2,AATCTAAG,0.102
3,AGTTTAAT,0.379
4,ACATGGTC,-0.222
5,CCTGAGCC,-0.36
6,AAACCGCT,-0.108
7,CCAACATC,0.0587
8,ATTCACCA,0.225
9,CTTGTACA,-0.000693
10,CTACACCA,-0.0178
11,AAACGAGC,-0.0752
12,ACACGTCT,-0.118
13,AGTAAGGG,-0.0556
14,ATCTAGTG,-0.0694
15,CGACTTAA,0.226
16,CGAACTGC,0.0227
17,GGCAATAA,0.228
18,CTCCTGCC,-0.23
19,AGAAACTG,0.0568
20,TGTCGAAA,0.147
21,CTGGTGAC,-0.142
22,GGAAAGCA,-0.275
23,CAGATTGA,-0.00818
24,CAATAGTG,0.248
25,GGTGGAGA,-0.174

row,Sequence,PBM 8-mer E-score
1,CAAGACTG,0.00304
2,AGGGGTGG,-0.319
3,GATCAAGC,-0.154
4,CGCCTGGC,-0.109
5,ACAAGACG,-0.127
6,CATCCGTA,0.0263
7,GAGCACCA,-0.227
8,CACACGTG,-0.139
9,CCGCCAAG,-0.146
10,ACCTAAGA,-0.0551
11,CCGATTTA,0.0508
12,ACAAATCT,0.0455
13,ATACCATG,0.0314
14,AGGAATAA,0.259
15,ACCCTGCC,0.0684
16,GGCTCGCA,-0.282
17,GATGCGAA,0.0654
18,ATGTATCC,0.202
19,ATTGGAAG,0.139
20,GCACAATA,0.26
21,GACTGAAA,-0.0305
22,AGCCATCA,-0.131
23,AATATTAT,0.445
24,CGTTAACC,0.0719
25,CGAAAACC,-0.0776

row,Sequence,PBM 8-mer E-score
1,TCTAGGAA,-0.0425
2,GAGAAAGA,-0.0554
3,GAGCAAAA,-0.0501
4,CACTACGC,-0.158
5,ATCCAGGA,0.0499
6,TGACTACA,0.109
7,AACCATAC,0.0324
8,CAACTGCG,-0.0509
9,CTCCCTCC,-0.204
10,CACTTGGA,0.011
11,AGAGTCAC,-0.132
12,ACTAGTAA,0.24
13,CAGGTAGG,-0.3
14,GAACAGCC,-0.31
15,ACATTCGG,-0.0277
16,AGATACTA,0.143
17,AGGCCCTA,-0.185
18,ACTACGTA,-0.0219
19,CCCATCTA,-0.0587
20,ACACCATA,0.0603
21,ATGATCCA,-0.00729
22,AATCTAAC,0.198
23,TAACCATA,0.1
24,AGCATATC,-0.0071
25,GCGTTTGA,-0.185

row,Sequence,PBM 8-mer E-score
1,AATATTGT,0.355
2,AAAGAGGG,-0.217
3,AGCGCTAC,-0.0554
4,CTGCCATA,-0.149
5,ATTTGCGC,0.183
6,GATCCCAC,0.0328
7,AATCTTAG,0.0795
8,AGTGTTAT,0.265
9,GTAGATGA,0.0641
10,TGGATCCA,-0.097
11,GGCGAAAC,-0.0209
12,GGTTGGCA,-0.0827
13,CTAAGTCA,-0.101
14,CATTCGTC,-0.183
15,ATAGCTGC,0.0379
16,GCGGGCAA,-0.0254
17,AATTCGCC,0.13
18,CTACGTGA,-0.144
19,CCCAACTA,0.0767
20,CCCGAGAG,-0.218
21,AGTACGTG,0.00872
22,GGTGCCCA,-0.241
23,ATCAACGC,-0.00753
24,ATACAGAG,0.156
25,GCCGCAAC,-0.0726

row,Sequence,PBM 8-mer E-score
1,CTTGCAAC,0.046
2,GCTGACAA,-0.00171
3,AAAATCCC,-0.0792
4,GTACTAGA,-0.0314
5,AAGCCTGA,-0.279
6,GAACCTAC,-0.248
7,ACATCGGG,-0.12
8,ACTTAGTA,0.275
9,CGCGGTCA,-0.275
10,ACTTACAG,0.054
11,ATACGCGA,0.154
12,CAGTCTCG,-0.14
13,CTCTACTA,-0.0157
14,ATACAGGG,-0.012
15,CCGGATCA,-0.133
16,GTTGGCGA,-0.0995
17,AATACGAT,0.207
18,CCGATGCA,-0.148
19,ATACCGCA,0.145
20,CTGGTCCA,-0.192
21,CCTGTGCC,-0.271
22,GATAGCGA,-0.116
23,CCAGCTAG,-0.265
24,AGAAGAAG,-0.0887
25,CTCAGGCA,-0.144

row,Sequence,PBM 8-mer E-score
1,CGGCTTGC,-0.279
2,AACACAGC,0.0432
3,ATCTATAC,0.138
4,CCACTCCC,-0.19
5,CTCAACAC,0.0487
6,CAGGCGGC,-0.25
7,CATATCGA,0.166
8,GGTTGGGA,-0.177
9,ACCGTACT,-0.0584
10,AATCCTCT,-0.0384
11,CACTTCAG,-0.0275
12,ACACTTAT,0.331
13,CTGACCCC,-0.266
14,ACCGTTGA,-0.17
15,AGCTAGCC,-0.22
16,CCTCAACC,-0.226
17,CTCTCGGC,-0.112
18,AAGTGGGA,-0.0974
19,ACTCCGTC,-0.0626
20,GCCCGAAC,-0.14
21,AGTCCCTC,-0.154
22,GGAAGGAA,-0.27
